# Assay results from PubChem BioAssay AID360 (National Center for Advancing Translational Sciences (NCATS), 2006).
# Out of some 48,000 compounds screened, about 550 (1.1%) were called active. Inconclusive results (about 4%) are left out. Rule as the data show it: active = potency below about 15 µM; inconclusive = mostly about 16 µM to 33 µM; inactive = weaker than that. This is one part of the list.
# Molecular target: Lysosomal acid glucosylceramidase (Homo sapiens) (UniProt P04062)
# Test: Glucocerebrosidase;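 also: the screen sought inhibitors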
# Conditions: purified enzyme, resorufin glucoside fluorescence (screen aimed at inhibitors), 20 min
# In short: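 Wild-type enzyme at 0.2 nM final in 50mM citric acid/KH2PO4, 10mM sodium taurocholate, 0.01% tween-20, pH 5.9, with resorufin beta-D-glucopyranoside at 30 uM final. Compounds titrated, 20 min at RT, red fluorescence read; AC50 from titration.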
# Potency is read from the fitted curve at half-maximal effect.
# Chain of UniProt P04062 (P04062 whole entry, looked up): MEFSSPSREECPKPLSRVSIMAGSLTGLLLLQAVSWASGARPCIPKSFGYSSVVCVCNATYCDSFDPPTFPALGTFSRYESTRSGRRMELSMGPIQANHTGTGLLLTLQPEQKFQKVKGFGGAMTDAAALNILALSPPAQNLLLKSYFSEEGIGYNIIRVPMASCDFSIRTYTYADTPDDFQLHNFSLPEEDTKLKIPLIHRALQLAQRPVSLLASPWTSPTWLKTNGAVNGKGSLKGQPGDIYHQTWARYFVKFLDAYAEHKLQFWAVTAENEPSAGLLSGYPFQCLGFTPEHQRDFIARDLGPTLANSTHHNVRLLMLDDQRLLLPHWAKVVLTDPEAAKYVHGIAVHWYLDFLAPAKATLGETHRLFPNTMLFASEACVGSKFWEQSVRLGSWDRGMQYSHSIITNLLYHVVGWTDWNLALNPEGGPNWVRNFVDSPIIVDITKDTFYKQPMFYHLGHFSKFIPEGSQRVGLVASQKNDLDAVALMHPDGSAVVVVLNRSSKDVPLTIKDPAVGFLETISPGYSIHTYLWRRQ
row,SMILES,Potency
1,CCCOc1ccc2oc(=O)c3c(c2c1)CCCN3C(=O)CN1CCN(c2ncccn2)CC1,inactive: > 76.9 µM
2,COc1ccc(N2CCN(Cc3cc(=O)oc4ccc5ccccc5c34)CC2)cc1,active: 5.96 µM
3,Cc1csc(C(C#N)C(=O)c2cc3ccccc3o2)n1 (stereo not given),inactive: > 76.9 µM
4,O=C(c1ccccc1F)N1CCN(c2ccccc2F)CC1,inactive: > 76.9 µM
5,CCCCn1c(C(C)NC(=O)COC)nc2ccccc21 (stereo not given),inactive: > 76.9 µM
6,CCn1c(SCc2nc(CC(=O)Nc3ccccc3OC)no2)nnc1-c1cccs1,inactive: > 76.9 µM
7,Cc1ccc2c(c1)N(CC(=O)N1CCN(c3nc4ccccc4s3)CC1)C(=O)C(C)O2 (stereo not given),inactive: > 76.9 µM
8,CCCS(=O)(=O)N1CCCC(C(=O)NCCc2ccc(Cl)cc2)C1 (stereo not given),inactive: > 76.9 µM
9,Nc1ccc[n+](Cc2ccccn2)c1,inactive: > 76.9 µM
10,CCC(C)n1nccc1NC(=O)C(C)OC(=O)c1cc2ccccc2[nH]1 (stereo not given),inactive: > 76.9 µM
11,c1coc(-c2nnc(SCc3nc4ccccc4[nH]3)o2)c1,inactive: > 76.9 µM
12,O=S(=O)(c1ccc(Cl)c(C(F)(F)F)c1)N1CCN(CC(O)COCC2CCCO2)CC1 (stereo not given),inactive: > 76.9 µM
13,COC(C)(C)[C@]12CC(O)(C(C)C)ON1[C@H]1CCCCC1N2O (stereo not given in full),inactive: > 76.9 µM
14,O=C(c1ccccc1)c1nc[nH]c1C(=O)Nc1ccccc1,inactive: > 76.9 µM
15,CN(C)S(=O)(=O)c1ccc(C(=O)Oc2ccccc2)cc1,inactive: > 76.9 µM
16,Cc1c(C(=O)O)[nH]c2c1C(=O)CC(c1ccccc1)C2 (stereo not given),inactive: > 76.9 µM
17,O=c1[nH]c2ccsc2c(=O)n1-c1ccc(F)cc1,inactive: > 76.9 µM
18,Cn1c(NCCCN2CCOCC2)nc2c1c(=O)n(Cc1ccc(Cl)cc1Cl)c(=O)n2C,inactive: > 76.9 µM
19,CCOC(=O)N1CCN(C(=O)COc2ccc(S(=O)(=O)Nc3ccc(OCC)cc3)cc2)CC1,inactive: > 76.9 µM
20,O=C(c1ccco1)N1CCN(C(=O)C2(S(=O)(=O)c3ccc(Cl)cc3)CC2)CC1,inactive: > 76.9 µM
21,COC(=O)c1ccccc1NC(=O)COC(C)=O,inactive: > 76.9 µM
22,CC(=O)Nc1cccc(Oc2ccc3c(c2)C(=O)N(CCC(=O)O)C3=O)c1,inactive: > 76.9 µM
23,COc1ccc(N2CCN(CC(=O)Nc3cc(C)on3)CC2)cc1,inactive: > 76.9 µM

row,SMILES,Potency
1,O=C(NCCCN1CCCC1=O)c1ccc(CNS(=O)(=O)c2ccc(F)cc2)cc1,inactive: > 76.9 µM
2,COC(=O)c1ccccc1NC(=O)CCNC(=O)Cn1cnc2ccccc2c1=O,inactive: > 76.9 µM
3,COc1ccccc1-n1c(SCC(=O)NC2CCCC2)nc2cccnc21,inactive: > 76.9 µM
4,O=C(c1cccc(N2CCCC2=O)c1)N1CCN(c2ccccc2)CC1,inactive: > 76.9 µM
5,COc1ccccc1CC(=O)NCCc1ccc(S(N)(=O)=O)cc1,inactive: > 76.9 µM
6,O=c1c2ccccc2nc2n1CCC2,inactive: > 76.9 µM
7,O=C(CSCc1ccc(F)cc1)NC1CCCC1,inactive: > 76.9 µM
8,Cc1cnc(NC(=O)CSc2nnc(-c3ccncc3)n2C2CCCCC2)s1,inactive: > 76.9 µM
9,COC(=O)c1ccc(C(=O)OC)c(N)c1,inactive: > 76.9 µM
10,O=C(OCC(=O)N1CCC(Cc2ccccc2)CC1)c1ccc[nH]c1=O,inactive: > 76.9 µM
11,CCn1c(SCC(=O)OC2CCCCC2)nc2ccccc2c1=O,inactive: > 76.9 µM
12,CCCN(Cc1cc2cccc(C)c2[nH]c1=O)C(=O)c1cccc(OC)c1,inactive: > 76.9 µM
13,CC(=O)C1=C(C)NC(SCC(=O)c2ccccc2)=C(C#N)C1CC(C)C (stereo not given),inactive: > 76.9 µM
14,CCOC(=O)c1c(C)n(CC(O)c2ccccc2)c2ccc(O)cc12 (stereo not given),inactive: > 76.9 µM
15,Cc1ccccc1OCc1nnc(SCC(=O)Nc2ccc3c(c2)oc2ccccc23)n1C,inactive: > 76.9 µM
16,COCCCNC(=O)Cn1cc(C(C)=O)c2ccccc21,inactive: > 76.9 µM
17,Cc1ccc(NC(=O)CCN2C(=O)c3ccncc3C2=O)cc1,inactive: > 76.9 µM
18,c1ccc(-c2cc3c(nn2)CCc2nonc2-3)cc1,inactive: > 76.9 µM
19,CC(=O)c1c(C)nc(-c2ccc(Cl)cc2)nc1N=CN(C)C,inactive: > 76.9 µM
20,CCOC(=O)N1CCN(S(=O)(=O)c2ccc3c(c2)CCN3C(=O)C2CCC2)CC1,inactive: > 76.9 µM
21,O=C(NCCC1=CCCCC1)C1CC(=O)N(C2CCCCCC2)C1 (stereo not given),inactive: > 76.9 µM
22,COc1ccc(S(=O)(=O)NC2(C(F)(F)F)N=C3SCCN3C2=O)cc1 (stereo not given),inactive: > 76.9 µM
23,CN(C)S(=O)(=O)N1CCN(C(=O)c2ccccc2Cl)CC1,inactive: > 76.9 µM

row,SMILES,Potency
1,CCOC(=O)CCC(=O)NCc1ccc2[nH]c(C)cc2c1,inactive: > 76.9 µM
2,O=C1CC(N2CCN(c3ccc(O)cc3)CC2)C(=O)N1Cc1cccs1 (stereo not given),inactive: > 76.9 µM
3,Brc1ccc(-c2cn3cccnc3n2)cc1,inactive: > 76.9 µM
4,CN1c2ccccc2-c2nc3ccccc3n2C1c1ccncc1 (stereo not given),inactive: > 76.9 µM
5,CC(=O)Nc1nonc1-c1nc2ccccc2n1CC1CC1,inactive: > 76.9 µM
6,N#Cc1c(NC(=O)CSc2nc(N)cc(=O)[nH]2)sc2c1CCCCCC2,inactive: > 76.9 µM
7,COC(=O)[C@H](CC(C)C)NC(=O)Nc1ccc2c(c1)OCCO2,inactive: > 76.9 µM
8,CCOc1ccccc1NC(=O)CSc1nccn1-c1ccccc1,inactive: > 76.9 µM
9,Cc1sc2nc(SCC(=O)N3CCCCC3)[nH]c(=O)c2c1C,inactive
10,O=C(Nc1cccnc1)c1noc2c1CCCC2,inactive: > 76.9 µM
11,Cc1ccc(OCc2nnc(SCC(=O)Nc3sc(C)c(C)c3C#N)n2C)cc1,inactive: > 76.9 µM
12,CC(=O)N1CCCc2cc(S(=O)(=O)N3CCN(c4ccccn4)CC3)ccc21,inactive: > 76.9 µM
13,COC(=O)Cc1[nH]nc2c1C(c1cccc(OC)c1OC)C(C#N)=C(N)O2 (stereo not given),inactive: > 76.9 µM
14,Cc1ccc(-c2ccc(=O)n(CCC(=O)NCCN3CCCCC3C)n2)cc1 (stereo not given),inactive: > 76.9 µM
15,CCn1c(Cc2ccccc2)nnc1SCC(=O)OC(C)C,inactive: > 76.9 µM
16,CN(C)S(=O)(=O)c1ccc(C(=O)OCC(=O)NC(=O)NCc2ccccc2)cc1,inactive: > 76.9 µM
17,COc1ccc(-c2nnc(SCC(=O)Nc3sc4c(c3C#N)CCC4)n2CC2CCCO2)cc1 (stereo not given),inactive: > 76.9 µM
18,CCOc1ccccc1N(CC(=O)O)S(=O)(=O)c1ccc(C)cc1,inactive: > 76.9 µM
19,Cc1cccc(NC(=O)CC2NC3CCCCC3NC2=O)c1 (stereo not given),inactive: > 76.9 µM
20,Cc1cc(C(=O)OCC(=O)Nc2cc(C(F)(F)F)ccc2N2CCOCC2)c(C)o1,inactive: > 76.9 µM
21,CSc1ccccc1C(=O)NCc1ccc2c(c1)OCO2,inactive: > 76.9 µM
22,Cc1cc(C)nc(NC(=O)C(C)N2C(=O)c3ccccc3C2=O)n1 (stereo not given),inactive: > 76.9 µM
23,C=CCn1c(C)cc(C(=O)CSc2nc3ccccc3o2)c1C,inactive: > 76.9 µM

row,SMILES,Potency
1,Cc1cc(NCCN2CCOCC2)n2c(nc3ccccc32)c1C#N,inactive: > 76.9 µM
2,CN(c1ccccc1)S(=O)(=O)c1ccc(C(=O)OCC(=O)NCc2ccco2)cc1,inactive
3,COc1ccc(CCNS(=O)(=O)c2ccc3c(c2)CCN3C(=O)C2CC2)cc1OC,inactive: > 76.9 µM
4,CCN(CC)CCC(=O)NC(C)(C)Cc1ccc(O)cc1,inactive: > 76.9 µM
5,Cc1ccc(-n2c(=O)[nH]cc(C(=O)Nc3ccc4c(c3)OCCO4)c2=O)cc1,inactive: > 76.9 µM
6,COC(=O)C1=C(N)Oc2cc(C)n(Cc3ccco3)c(=O)c2C1c1cccc(Cl)c1 (stereo not given),inactive: > 76.9 µM
7,CC1=[N+]([O-])C(N2CCOCC2)C(O)(c2ccccc2)C1 (stereo not given),inactive: > 76.9 µM
8,CCCCCOC(=O)C1[C@H]2C(=O)N(Cc3cccs3)C[C@]23C=C[C@H]1O3 (stereo not given in full),inactive: > 76.9 µM
9,CCN1C(=O)C2(Nc3ccccc3-c3nc4ccccc4n32)c2cc(OC)ccc21 (stereo not given),inactive: > 76.9 µM
10,c1ccc(-n2cnnc2SCc2cn3ccsc3n2)cc1,inactive: > 76.9 µM
11,COc1ccc(N2CCN(Cc3cc(=O)oc4cc5c(cc34)CCCC5)CC2)cc1,inactive: > 76.9 µM
12,Cc1cccc(N2CCN(C(=O)COc3cc(=O)n(C)c4ccccc34)CC2)c1C,inactive: > 76.9 µM
13,COc1cccc(N2CC(C(=O)Nc3c(C)cccc3C)CC2=O)c1 (stereo not given),inactive: > 76.9 µM
14,COc1ccc(-c2csc3nc(C)n(-n4cccc4)c(=O)c23)cc1OC,inactive: > 76.9 µM
15,COc1cccc(/C(O)=C2/C(=O)C(=O)N(Cc3ccco3)C2c2ccncc2)c1 (stereo not given),inactive: > 76.9 µM
16,COc1nc(N)nc(NC23CC4CC(CC(C4)C2)C3)n1,inactive
17,CCOC(=O)c1ccccc1NC(=O)c1ccc(NS(C)(=O)=O)cc1,inactive: > 76.9 µM
18,OCCNc1nc2ccccc2n1-c1ccccc1,inactive
19,CCOCCCNc1nc2c(c(=O)[nH]c(=O)n2C)n1CCCc1ccccc1,inactive: > 76.9 µM
20,O=S(=O)(c1ccccc1Cl)N1CCCC(c2nc(-c3cccnc3)no2)C1 (stereo not given),inactive: > 76.9 µM
21,CCCC(=O)Nc1cc(OC)c(OC)cc1C(=O)O,inactive: > 76.9 µM
